# Assay results taken from PubChem BioAssay AID2147 (National Center for Advancing Translational Sciences (NCATS), 2009).
# The whole screen tested about 230,000 compounds, of which about 3,600 (1.6%) were called active. Inconclusive results, whose numbers are uncertain, are shown with a selection of clear calls. Calls follow the shape of the dose curve; as a rule, active = well fitted inhibition curve with a large enough effect (not every such curve was filed as active); inconclusive = small, poorly fitted or top-dose-only effect, or another doubt; inactive = no such curve, though single readings can be large or run the other way. Potencies beside an inconclusive call are fits to weak or partial responses and may not hold up.
# Target: Lysine-specific demethylase 4E (Homo sapiens) (UniProt B2RXH2)
# Assay: qHTS Assay for Inhibitors of Human Jumonji Domain Containing 2E (JMJD2E)
# Settings: JMJD2E catalytic domain, FDH-coupled NADH fluorescence (FDH is formaldehyde dehydrogenase); series mostly up to 57.1 µM
# Also: nearly all actives have a fitted effect of over 50% in size.
# Potency is read from the fitted curve at half-maximal effect; tags tell the direction and shape of the fitted curve.
# UniProt B2RXH2, sequence (B2RXH2 whole entry, looked up, the tested form may be a part): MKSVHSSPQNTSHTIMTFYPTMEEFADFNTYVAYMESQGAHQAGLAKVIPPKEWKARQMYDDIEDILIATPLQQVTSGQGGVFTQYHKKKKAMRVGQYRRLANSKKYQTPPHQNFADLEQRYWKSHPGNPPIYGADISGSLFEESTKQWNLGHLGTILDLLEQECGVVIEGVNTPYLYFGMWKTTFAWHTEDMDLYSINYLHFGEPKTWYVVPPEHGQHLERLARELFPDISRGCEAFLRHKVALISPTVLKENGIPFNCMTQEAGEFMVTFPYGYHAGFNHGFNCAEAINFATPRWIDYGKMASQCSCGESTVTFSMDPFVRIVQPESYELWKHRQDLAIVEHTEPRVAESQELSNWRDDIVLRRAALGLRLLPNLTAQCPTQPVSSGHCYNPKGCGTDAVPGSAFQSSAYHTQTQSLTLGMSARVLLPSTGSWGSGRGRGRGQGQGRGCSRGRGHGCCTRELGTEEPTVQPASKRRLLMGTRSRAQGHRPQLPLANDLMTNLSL
row,Structure (SMILES),Potency
1,COc1ccccc1/C=N/NC(=O)c1ccc(N(C)S(=O)(=O)c2ccccc2)cc1,"inconclusive: 39.8 µM [inhibitor, single point]"
2,CC(C)CCNc1nc2ccccc2nc1NS(=O)(=O)c1cccs1,"inconclusive: 22.4 µM [inhibitor, partial curve]"
3,O=C(N/N=C\c1ccc(CN(Cc2ccc(Cl)cc2)S(=O)(=O)c2ccccc2)o1)C(=O)Nc1ccc(F)cc1,"inconclusive: 39.8 µM [inhibitor, single point]"
4,CCCCCCc1cc2cc(S(=O)(=O)c3ccc(Cl)cc3)c(=O)oc2cc1O,"inconclusive: 2.82 µM [inhibitor, partial curve]"
5,COc1ccc(OC)c(-c2nnc(NC(=O)C(C)Sc3nncn3C)s2)c1 (stereo not drawn),"inconclusive: 39.8 µM [inhibitor, single point]"
6,NC(=O)c1cc(-c2ccccc2)nc(N2CCCCCC2)n1,"inconclusive: 35.5 µM [inhibitor, single point]"
7,CC1=CC(C)(C)Nc2ccc(OC(=O)c3ccco3)cc21,inactive
8,Cc1ccc(-c2nnc3n2CCCCC3)cc1,inactive
9,COC(=O)CNC(c1ccccc1)c1cc(Cl)ccc1NC(=O)c1cccc(Cl)c1 (stereo not drawn),inactive
10,CCOC(=O)c1nn(-c2ccc(Cl)cc2)c2nc(CC)c(C#N)c(=O)n12,"inconclusive: 35.5 µM [inhibitor, single point]"
11,Cc1cccc(-c2nnnn2-c2cccc(C)c2)c1,inactive
12,COc1cccc(COc2ccccc2C2Nc3ccc(Br)cc3C(=O)N2NC(=O)c2ccncc2)c1 (stereo not drawn),"inconclusive: 39.8 µM [inhibitor, single point]"
13,Cc1cc(C)n(-c2nc3ccccc3nc2N2CCOCC2)n1,"inconclusive: 31.6 µM [inhibitor, single point]"
14,CC1CCCCC1NC(=O)CN1C(=O)c2cccc(N)c2C1=O (stereo not drawn),"inconclusive: 25.1 µM [inhibitor, single point]"
15,O=C(Nc1cccc(OC(F)(F)F)c1)c1ccc(Br)o1,inactive
16,CCOC(Cn1c(-c2ccc(OC)cc2)nc2ccccc21)OCC,"inconclusive: 28.2 µM [inhibitor, single point]"
17,CCN(CC)S(=O)(=O)c1cccc(S(=O)(=O)N2CCCCC2)c1,inactive
18,CCCCC(=O)Nc1ccc(C(=O)NNC(=S)NC(=O)c2cccs2)cc1,"inconclusive: 39.8 µM [inhibitor, single point]"
19,Cc1ccc(-c2cc3nc(-c4ccccc4)cc(N)n3n2)cc1,"inconclusive: 20 µM [inhibitor, partial curve]"
20,c1ccc(CNc2ccc3c(c2)ncn3C2CCCCC2)nc1,"inconclusive: 39.8 µM [inhibitor, single point]"
21,O=C(CSC1=NNC(c2ccccn2)S1)Nc1ccccc1 (stereo not drawn),"inconclusive: 25.1 µM [inhibitor, single point]"
22,CCOc1cc(/C=N/NC(=O)c2ccc(O)cc2)ccc1Oc1nc(Cl)ncc1F,"inconclusive: 39.8 µM [inhibitor, single point]"

row,Structure (SMILES),Potency
1,COc1c2c(nc3ccccc13)O[C@H]([C@@](C)(O)CO)C2,inactive
2,O=C(CSc1cccc[n+]1[O-])Nc1ccc2c(c1)OCCO2,inactive
3,CC(=O)c1ccc(N=Cc2c(O)n(-c3cc(Cl)ccc3N3CCOCC3)c(=O)c3ccccc23)cc1,"inconclusive: 31.6 µM [inhibitor, partial curve]"
4,COc1cc2ccc(=O)oc2cc1OCC(O)C(C)(C)O (stereo not drawn),"inconclusive: 28.2 µM [inhibitor, partial curve]"
5,COC(=O)CCc1c(C)c(C(=O)c2ccco2)c2ccccn12,"inconclusive: 39.8 µM [inhibitor, single point]"
6,COC1[C@H](OC(N)=O)C(O)[C@H](Oc2ccc3c(O)c(NC(=O)c4ccc(O)c(CC=C(C)C)c4)c(=O)oc3c2C)OC1(C)C (stereo partly drawn),"inconclusive: 35.5 µM [inhibitor, single point]"
7,C/C(=N\NC(=O)c1ccc(OC2OCCOC2Oc2ccc(C(=O)N/N=C(\C)c3ccncc3)cc2)cc1)c1ccncc1 (stereo not drawn),inactive
8,CCn1c(=O)c(C(=O)NNS(=O)(=O)c2ccc(C)cc2)c(O)c2ccccc21,"inconclusive: 31.6 µM [inhibitor, single point]"
9,N[C@@H](CSS(=O)(=O)O)C(=O)O,"inconclusive: 25.1 µM [inhibitor, partial curve, poor fit]"
10,Oc1c(Cl)cc(Cl)cc1C=Nc1ccc2c(c1)OCCO2,inactive
11,CN(C)c1ccc(N/C=C/C(=O)c2ccccc2)cc1,"inconclusive: 1.78 µM [inhibitor, full curve]"
12,CC(C)Cn1c2c(c(O)c(C(=O)Nn3c(Cc4ccccc4)nc4ccccc4c3=O)c1=O)CCCC2,"inconclusive: 8.91 µM [inhibitor, single point]"
13,COc1ccccc1C(=O)N/C(=N/c1nc(C)cc(C)n1)Nc1ccccc1,"inconclusive: 39.8 µM [inhibitor, single point]"
14,C/C(=N\NC(=O)C1CCCN(S(=O)(=O)c2ccccc2)C1)c1ccccn1 (stereo not drawn),"inconclusive: 31.6 µM [inhibitor, single point]"
15,CS(=O)(=O)Nc1cccc(-c2nccc(-n3ccnc3)n2)c1,"inconclusive: 25.1 µM [inhibitor, single point]"
16,COC(=O)c1ccccc1NC(=O)c1ccc(Cn2cc(Cl)cn2)o1,"inconclusive: 39.8 µM [inhibitor, single point]"
17,CCc1ccc(-c2nc(C(N)=O)c3[nH]c(=O)n(-c4ccccc4OC)c3n2)cc1,"inconclusive: 35.5 µM [inhibitor, partial curve]"
18,O=c1oc2cc(OCc3c(F)c(F)c(F)c(F)c3F)ccc2cc1-c1ccccn1,"inconclusive: 28.2 µM [inhibitor, partial curve]"
19,Cc1ccc(NC(=O)CSC2=NN3CCCC(=O)N=C3S2)c(C)c1,inactive
20,Cc1onc(-c2c(F)cccc2Cl)c1C(=O)Nc1nc2c(s1)CCCC2,"inconclusive: 39.8 µM [inhibitor, single point]"
21,COc1ccc(C2Nc3cccc4cccc(c34)N2)cc1,"inconclusive: 2 µM [inhibitor, partial curve]"
